Screen size: about 220,000 compounds; about 5,700 (2.6%) were called active. Inconclusive results, whose numbers are uncertain, are shown with a selection of clear calls. Calls come from the whole dose curve; as a rule, active = well fitted inhibition curve with a large enough effect; inconclusive = small, poorly fitted or top-dose-only effect; inactive = no such curve, though single readings can be large or run the other way. Potencies of inconclusive entries are doubtful fits and often do not repeat.
biological target: Lysine-specific demethylase 5B (Homo sapiens) (UniProt Q9UGL1); experiment: Primary screen for KDM5B Histone Demethylases FDH-coupled qHTS; settings: FDH-coupled NADH fluorescence (FDH is formaldehyde dehydrogenase); activity change, negative = inhibition: at 57.7 µM (top of the series) unless noted; note: nearly all actives have a fitted effect of over 70% in size; for activity change, negative = inhibition: 0% is about no effect
Method in brief: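 qHTS format, multiple compound concentrations. Buffer 50 mM HEPES pH 7.5/0.01% Tween-20; 200 nM KDM5BΔAP final; 10 min compound preincubation; substrate-mix levels 12.5 µM peptide, 25 µM α-KG, 0.25 mM NAD⁺; 30 min RT; ΔRFU.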
Potency is the fitted concentration of half-maximal effect; tags give direction and shape of the fitted curve.

UniProt Q9UGL1, sequence (Q9UGL1 whole entry, looked up): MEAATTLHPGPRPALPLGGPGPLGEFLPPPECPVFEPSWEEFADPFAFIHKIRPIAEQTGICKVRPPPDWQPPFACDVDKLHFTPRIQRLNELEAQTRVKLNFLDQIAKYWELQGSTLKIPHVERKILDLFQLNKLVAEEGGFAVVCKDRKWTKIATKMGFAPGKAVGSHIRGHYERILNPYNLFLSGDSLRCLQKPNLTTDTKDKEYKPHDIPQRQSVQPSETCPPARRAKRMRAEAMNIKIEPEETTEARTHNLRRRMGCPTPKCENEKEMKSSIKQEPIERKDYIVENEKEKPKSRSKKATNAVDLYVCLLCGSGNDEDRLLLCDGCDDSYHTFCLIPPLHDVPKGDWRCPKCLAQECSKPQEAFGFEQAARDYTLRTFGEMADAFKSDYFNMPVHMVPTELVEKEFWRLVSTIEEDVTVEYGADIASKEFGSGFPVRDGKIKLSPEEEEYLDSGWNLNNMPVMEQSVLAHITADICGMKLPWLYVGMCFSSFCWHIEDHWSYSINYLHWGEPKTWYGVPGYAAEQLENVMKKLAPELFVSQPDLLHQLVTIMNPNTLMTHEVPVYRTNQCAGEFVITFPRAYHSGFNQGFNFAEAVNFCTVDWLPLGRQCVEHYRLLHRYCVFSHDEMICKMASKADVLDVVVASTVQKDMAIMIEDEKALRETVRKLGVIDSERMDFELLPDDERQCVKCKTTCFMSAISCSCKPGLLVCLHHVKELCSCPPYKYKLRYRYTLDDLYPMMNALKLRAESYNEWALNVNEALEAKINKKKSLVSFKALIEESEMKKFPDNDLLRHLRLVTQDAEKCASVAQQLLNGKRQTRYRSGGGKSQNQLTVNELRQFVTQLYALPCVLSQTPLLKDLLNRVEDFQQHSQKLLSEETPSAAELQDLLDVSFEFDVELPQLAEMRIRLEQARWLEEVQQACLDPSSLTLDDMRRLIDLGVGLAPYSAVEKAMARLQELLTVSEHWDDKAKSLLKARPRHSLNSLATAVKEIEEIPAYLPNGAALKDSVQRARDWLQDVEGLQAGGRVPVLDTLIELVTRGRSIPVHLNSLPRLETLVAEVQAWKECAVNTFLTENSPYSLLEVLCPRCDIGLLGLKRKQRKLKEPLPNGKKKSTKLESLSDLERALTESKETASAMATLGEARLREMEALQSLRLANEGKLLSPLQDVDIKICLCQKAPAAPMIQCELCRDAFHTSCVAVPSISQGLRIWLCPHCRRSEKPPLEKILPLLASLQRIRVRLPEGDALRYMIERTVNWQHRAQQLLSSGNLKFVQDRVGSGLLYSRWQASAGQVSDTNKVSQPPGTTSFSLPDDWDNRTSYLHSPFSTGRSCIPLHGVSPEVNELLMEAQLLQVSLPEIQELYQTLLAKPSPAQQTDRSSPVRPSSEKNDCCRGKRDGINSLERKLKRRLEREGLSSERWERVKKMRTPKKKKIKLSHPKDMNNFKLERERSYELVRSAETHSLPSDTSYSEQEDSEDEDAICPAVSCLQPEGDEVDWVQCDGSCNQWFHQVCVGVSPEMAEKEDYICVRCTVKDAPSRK

| Compound | Potency | activity change, negative = inhibition |
| --- | --- | --- |
| COc1ccc2[nH]cc(CCNC(=O)c3cnn(-c4ccc(C)cc4)c3C3CCN(C(=O)OC(C)(C)C)CC3)c2c1 | inconclusive: 25.1 µM [inhibitor, single point] |  |
| Cc1ccc(CC(=O)N2CCC(Cc3nc(C(C)C)no3)CC2)cc1 | inactive |  |
| CS(=O)(=O)N1CCC(Cc2ccc(C(=O)NCCN3CCOCC3)cc2)CC1 | inactive |  |
| CCc1ccc(/C=C/C(=O)NCc2ccco2)o1 | inconclusive: 28.2 µM [inhibitor, single point] |  |
| CC(=O)c1ccc(N2CCN(S(=O)(=O)c3cc(-c4noc(C)n4)ccc3C)CC2)cc1 | inactive |  |
| Cc1nn(S(=O)(=O)c2ccc(C(C)(C)C)cc2)c(C)c1S(=O)(=O)N1CCC(C)CC1 | inconclusive: 11.2 µM [inhibitor, partial curve, poor fit] |  |
| O=C1NCCCc2[nH]c(-c3csc(-c4ccccc4)n3)nc21 | inconclusive: 17.8 µM [inhibitor, single point] |  |
| CCC(C)(C)c1ccc(OCC(O)CNCc2ccccc2)c(C(C)(C)CC)c1 (centres undefined) | inconclusive: 31.6 µM [inhibitor, partial curve, poor fit] |  |
| Cc1ncc2c(c1CNC(=O)c1cc(F)cc(Cl)c1)CCNC2 | inconclusive: 12.6 µM [inhibitor, partial curve, poor fit] |  |
| CCOC(=O)c1cc(NC(C)=O)ccc1N1CCOCC1 | inconclusive: 22.4 µM [inhibitor, partial curve, poor fit] |  |
| Cc1ccc(NC(=O)c2cc(S(=O)(=O)NC3CCCCC3)ccc2F)cc1Cl | inconclusive: 1.78 µM [inhibitor, partial curve, poor fit] |  |
| CC1Cc2ccccc2N1S(=O)(=O)c1nnc(NC(=O)c2cccc(F)c2)s1 (centres undefined) | inactive |  |
| Cc1ccc(CC(S)C(=O)O)cc1C (centres undefined) | inactive |  |
| Cn1nc(C(=O)N2C[C@@H](Oc3cccnc3)C[C@H]2C(N)=O)c2ccccc21 | inconclusive: 11.2 µM [inhibitor, partial curve] |  |
| Cc1nn2c(c1-c1ccccc1OCc1ccccc1)N(C(=O)Cc1ccccc1)CCC2 | inconclusive: 22.4 µM [inhibitor, partial curve, poor fit] |  |
| Cc1ccc(NC(=O)CSc2nc(=O)n(Cc3ccco3)c3c2CCC3)cc1F | inconclusive: 2.82 µM [inhibitor, full curve, poor fit] |  |
| COc1ccc(NC(=O)N2CCCC(Cn3c(C4CC4)nc4cccnc43)C2)cc1Cl (centres undefined) | inactive |  |
| O=C(Nc1sc2c(c1C(=O)Nc1cccc(Cl)c1)CCCC2)c1cccs1 | inconclusive: 7.94 µM [inhibitor, partial curve, poor fit] |  |
| CCn1nc(-c2ccccc2)c(-c2ccccc2)c(C(=O)Nc2nc(C)c(C(C)=O)s2)c1=O | inconclusive: 17.8 µM [inhibitor, partial curve, poor fit] |  |
| Cc1c(Cl)ccc2c(C(=O)Nc3cc(C(C)(C)C)on3)cc(-c3ccccn3)nc12 | inconclusive: 28.2 µM [inhibitor, partial curve, poor fit] |  |
| CCCn1c(=O)[nH]c(=O)c2c1nc(-c1cccc(OC)c1OC)n2CCN1CCOCC1 | inactive |  |
| COc1ccc(-c2noc([C@@H]3CCCN3C(=O)c3ccc(F)c(F)c3)n2)cc1OC | inactive |  |
| CC(=O)c1ccc(NC(=O)Cc2c(C)c3ccc(O)cc3oc2=O)cc1 | inconclusive: 14.1 µM [inhibitor, partial curve, poor fit] |  |

| Compound | Potency | activity change, negative = inhibition |
| --- | --- | --- |
| COc1ccc(-c2nc(CN3CCC(C(=O)NCCc4ccccc4)CC3)c(C)o2)cc1OC | inactive |  |
| Cc1cc(=O)oc2cc(OCC(=O)Oc3ccc4ccccc4c3)ccc12 | inconclusive: 28.2 µM [inhibitor, partial curve, poor fit] |  |
| O=S1(=O)NCC2(CCN(Cc3c[nH]c4ccccc34)C2)Oc2ncccc21 (centres undefined) | inconclusive: 50.1 µM [inhibitor, partial curve, poor fit] |  |
| COc1cc(-c2ccnc(-c3nnc(C)n3Cc3ccncc3)c2)ccn1 | inactive |  |
| Cc1ccnc(Nc2nc(C)c3cccc(C)c3n2)n1 | inconclusive: 31.6 µM [inhibitor, partial curve, poor fit] |  |
| N#Cc1nc(/C=C/c2ccc(Cl)cc2)oc1N1CCN(C(=O)c2ccco2)CC1 | inactive |  |
| COC(=O)c1ccc2c(c1)CCN2 | inactive |  |
| CN1CCCCCC(O)c2cc(C(=O)N3CCN(c4ncccn4)CC3)ccc21 (centres undefined) | inconclusive: 25.1 µM [inhibitor, partial curve, poor fit] |  |
| Cn1cc(CN2CCC(C(=O)N3CCCC3)CC2)c(-c2ccc(C3CCCCC3)cc2)n1 | inactive |  |
| Cc1cccc(Cn2c(COc3ccc(Cl)cc3)nc3ccccc32)c1 | inconclusive: 0.891 µM [inhibitor, full curve, poor fit] |  |
| O=C(NCc1ccnc2[nH]ccc12)c1ccc(Cl)cc1 | inconclusive: 35.5 µM [inhibitor, partial curve] |  |
| COCCN1CC2(CCC1=O)CCN(C(=O)C(C)SC)CC2 (centres undefined) | inactive |  |
| CC(=O)Nc1ccccc1-c1c(C)nn2c1N(CCC(C)C)CCC2 | inconclusive: 28.2 µM [inhibitor, single point] |  |
| COc1cccc(/C=C2\Oc3cc(OS(=O)(=O)c4ccc(C)cc4)ccc3C2=O)c1 | inactive |  |
| CCc1ccc2cc(-c3ccc(C)c(C)c3)cn2c1 | inconclusive: 39.8 µM [inhibitor, single point] |  |
| CCCn1cc(-c2ccncc2)cc1C(=O)NCc1ccc(C)o1 | inconclusive: 22.4 µM [inhibitor, partial curve, poor fit] |  |
| C=CCNC(=O)c1ccccc1NC(=O)c1ccccn1 | inactive |  |
| CCN1CCN(C(c2cccs2)c2c(NC(=O)c3ccccc3)sc(C)c2C)CC1 (centres undefined) | inactive |  |
| O=C(NC1C2CC3CC(C2)CC1C3)c1ccc(-c2ccc(Br)cc2)o1 (centres undefined) | inconclusive: 28.2 µM [inhibitor, partial curve, poor fit] |  |
| N#Cc1ccc(CN2CCC3(CC2)CNc2ccccc2[S+](=O)([O-])N3)cc1 | inactive |  |
| CN1c2cc(C(=O)Nc3ccc(F)c(F)c3)ccc2C(=O)N2CCCCC21 (centres undefined) | inconclusive: 35.5 µM [inhibitor, partial curve, poor fit] |  |
| Cc1ccc(C(CNC(=O)c2oc3ccc(F)cc3c2C)N(C)C)o1 (centres undefined) | inactive |  |
| COc1cccc(CN2CCN3C(=O)N(Cc4ccccn4)C[C@H]3C2)c1 | inconclusive: 25.1 µM [inhibitor, partial curve] |  |

| Compound | Potency | activity change, negative = inhibition |
| --- | --- | --- |
| CCN(CC)Cc1ccccn1 | inconclusive: 39.8 µM [inhibitor, single point] |  |
| CCCCn1c(CCC(=O)Nc2ccccc2C)nc2c1c(=O)[nH]c(=O)n2CCC | inactive |  |
| Cn1c(NCCCO)nc2c1c(=O)n(Cc1cccc(Cl)c1)c(=O)n2C | inactive |  |
| CN(C)S(=O)(=O)c1ccc(NC(=O)CN2CCCC2c2ccc3c(c2)OCCCO3)cc1 (centres undefined) | inactive |  |
| O=C(NCC1CCCO1)Nc1c(NC2CCCCC2)c2ccccc2oc1=O (centres undefined) | inactive |  |
| COc1ccc(C)cc1NC(=O)c1cc2c(=O)n(Cc3cccnc3)ccc2nc1C | inconclusive: 39.8 µM [inhibitor, single point] |  |
| COCC1CN(C(=O)Cc2ccc(S(C)(=O)=O)cc2)CC12CCNCC2 (centres undefined) | inconclusive: 28.2 µM [inhibitor, partial curve] |  |
| CNC(=O)C1(N2CCC[C@H]2C(=O)N2CC[C@@H](O)C2)CCCCC1 | inconclusive: 31.6 µM [inhibitor, partial curve] |  |
| Cc1ccc(C)c(-n2nnnc2SCC(=O)Nc2ccc3nccnc3c2)c1 | inconclusive: 25.1 µM [inhibitor, partial curve, poor fit] |  |
| CCN(CC)CCNC(=O)c1cn(CCOC)c(=O)c2c1c1ccccc1n2C | inconclusive: 31.6 µM [inhibitor, partial curve, poor fit] |  |
| COc1ccc(Nc2cc(C)c3cc(NC(=O)Cc4ccc(Cl)cc4)ccc3n2)cc1 | inconclusive: 17.8 µM [inhibitor, partial curve, poor fit] |  |
| CCCCNC(=O)C1CCN(c2nc3ccccc3nc2C(F)(F)F)CC1 | inactive |  |
| CCCc1noc(-c2cccn3c(CNC(=O)COc4cccc(C)c4)nnc23)n1 | inconclusive: 20 µM [inhibitor, partial curve] |  |
| COc1ccc([C@H]2C[C@@H](O)[C@@H](O)[C@@H]2NCc2cnc3ccccc3c2)cc1 | inactive |  |
| Cn1nc(C(=O)NCc2ccccc2Cl)c2c1-c1ccccc1S(=O)(=O)C2 | inconclusive: 15.8 µM [inhibitor, partial curve, poor fit] |  |
| CCN(CC)C(=O)c1cc(C(=O)Nc2ccc(F)c(Cl)c2)n(C)n1 | inactive |  |
| COc1ccc(Cl)cc1NC(=O)C1CCN(S(=O)(=O)c2ccc3c(c2)CC(C)N3C(C)=O)CC1 (centres undefined) | inactive |  |
| Cc1cc(C)cc(NC(=O)CSc2oc(-c3ccco3)nc2S(=O)(=O)c2ccc(Cl)cc2)c1 | inconclusive: 8.91 µM [inhibitor, partial curve, poor fit] |  |
| Cc1ccc(CNC(=O)[C@H](C)NC(=O)[C@@H]2Cc3ccccc3CN2)cc1 | inactive |  |
| O=C(NCCc1ccc(Cl)cc1)c1ccc2nccn2c1 | active: 112 µM |  |
| CCCOc1ccc(CNC(=O)CCCn2nc(C)c3sc4ccccc4c3c2=O)cc1 |  | inconclusive: -34.9% [inhibitor] |
| CCc1cc(=O)oc2cc(OS(=O)(=O)c3cccc(C(F)(F)F)c3)ccc12 | inconclusive: 31.6 µM [inhibitor, partial curve, poor fit] |  |
| CN1Cc2c(cc(N3CCOCC3)nc2-c2cccc(C(F)(F)F)c2)C1=O | inactive |  |

Reference: PubChem BioAssay AID1347165 (National Center for Advancing Translational Sciences (NCATS), 2019)
